Experimental data from US20060241289A1.

Tests used:
[1] = target: TSH receptor coated onto plastic tubes or ELISA plate wells (RSR Ltd) / detergent solubilised TSH receptor; test: 125I-TSH on TSHR coated tubes, sample diluted in assay buffer
[2] = target: TSH receptor coated onto plastic tubes or ELISA plate wells (RSR Ltd) / detergent solubilised TSH receptor; test: 125I-TSH on TSHR coated tubes, sample diluted in serum

hMAb TSHR1 Fab
units/L (NIBSC 90/672) ([1]; Fab at 3 ng/mL): 0.8 units/L | units/L (NIBSC 90/672) ([1]; Fab at 30 ng/mL): 9.6 units/L | units/L (NIBSC 90/672) ([1]; Fab at 100 ng/mL): 16.9 units/L | units/L (NIBSC 90/672) ([2]; Fab at 3 ng/mL): 1.05 units/L | units/mg (NIBSC 90/672) ([2]; Fab at 3 ng/mL): 351 units/mg | units/L (NIBSC 90/672) ([2]; Fab at 10 ng/mL): 2.77 units/L | units/mg (NIBSC 90/672) ([2]; Fab at 10 ng/mL): 277 units/mg | units/L (NIBSC 90/672) ([2]; Fab at 30 ng/mL): 8 units/L | units/mg (NIBSC 90/672) ([2]; Fab at 30 ng/mL): 267 units/mg | units/L (NIBSC 90/672) ([2]; Fab at 100 ng/mL): 23.7 units/L | units/mg (NIBSC 90/672) ([2]; Fab at 100 ng/mL): 237 units/mg

Entries with a single value are a further part of the results.
